The campaign covered roughly 410,000 compounds. About 1,200 (0.29%) were called active. This list was built around the results that the source calls inconclusive (neither active nor inactive); the mix of calls is not that of the screen. Calls follow the shape of the dose curve; as a rule, active = well fitted activation curve with a large enough effect; inconclusive = small, poorly fitted or top-dose-only effect; inactive = flat fitted curve, though single readings scatter. Where the call is inconclusive, the potency comes from a doubtful curve fit.
Test: qHTS of Nrf2 Activators; also: nearly all actives have a fitted effect of over 65% in size; as to activation: % of control where 0% means no effect
Conditions: AREc32 ARE-luciferase reporter (MCF7-derived line), luminescence, 24 h; activation: at 46.1 µM (top of the series)
How it was run: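 Luciferase luminescence (Steady-Glo, 30 min at room temperature) served as the read-out of ARE activation in AREc32 cells treated with compounds for 24 hr at 37 deg C.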
Potency is read from the fitted curve at half-maximal effect; tags tell the direction and shape of the fitted curve.

Potency, inconclusive:
O=C(Nc1ccc(Cl)c(S(=O)(=O)N2CCOCC2)c1)c1cccs1 7.08 µM [activator, full curve], NC(=O)CSC1=N/C(=C\c2ccco2)C(=O)N1c1ccc(OC(F)F)cc1 11.2 µM [activator, partial curve], COC(=O)c1cc(=O)n(Cc2ccc(F)cc2)c(=Nc2ccccc2)s1 35.5 µM [activator, single point], CCOC(=O)/C(=C\c1ccc(Cl)cc1)c1nc2sc(C)c(C)c2c(=O)[nH]1 28.2 µM [activator, partial curve, poor fit], CC(C)c1ccc(O)c(NC(=O)c2cccnc2)c1 10 µM [activator, partial curve], N#Cc1c(Sc2ncc(C(F)(F)F)cc2Cl)nsc1C/C=N\OCc1c(F)cccc1Cl 28.2 µM [activator, single point], O=C(Nc1cccc(Cl)c1)c1ccc(NCCCN2CCOCC2)c([N+](=O)[O-])c1 22.4 µM [activator, single point], NC(=O)c1cc([N+](=O)[O-])c(Cl)cc1NCc1cccnc1 11.2 µM [activator, partial curve, poor fit], S=c1[nH]nc(-c2n[nH]c3c2CCC3)n1/N=C/C=C/c1ccco1 12.6 µM [activator, single point], O=c1[nH]cnc2c1sc1nc(C(F)F)cc(-c3ccccc3)c12 2.24 µM [activator, partial curve, poor fit], CCOC(=O)c1c[nH]c2c([N+](=O)[O-])cc(OC)cc2c1=O 20 µM [activator, single point], N/C(=N\OC(=O)c1ccccc1Cl)c1ccccc1 7.08 µM [activator, partial curve, poor fit], O=C1C(=Cc2ccccc2[N+](=O)[O-])Cc2ccccc21 7.08 µM [activator, partial curve, poor fit], ClC(/C=N/n1cnnc1)=C/c1ccccc1 3.55 µM [activator, partial curve, poor fit], COC(=O)C(Sc1ccc(Cl)cc1)C1SC(=S)N(Cc2ccccc2)C1=O (centres undefined) 35.5 µM [activator, single point], S=c1[nH]nc(-c2ccncc2)n1/N=C/C(Cl)=C\c1ccccc1 3.16 µM [activator, partial curve, poor fit], Cc1cccn2c(=O)nc(SCC(=O)Nc3cccc4ccccc34)nc12 14.1 µM [activator, partial curve, poor fit], C#CC(=O)N(c1cc(OC)ccc1OC)C(C(=O)NC1CCCC1)c1cccs1 (centres undefined) 25.1 µM [activator, single point], O=C(OCc1csc(-c2ccccc2)n1)c1ccccc1O 15.8 µM [activator, partial curve, poor fit], CC(=O)N1CCc2c(sc(NC(=O)CCS(=O)(=O)c3ccccc3)c2C#N)C1 10 µM [activator, partial curve, poor fit], CC(=O)Nc1cc(-c2ccsc2)cn2c(-c3ccc(F)cc3)cnc12 2.51 µM [activator, full curve, poor fit], COC(=O)CSc1nccc(-c2cccs2)n1 28.2 µM [activator, single point], CC(=O)Nc1cccc(NC(=O)CSc2ncc(C(=O)Nc3ccc(F)cc3)c(=O)n2C)c1 20 µM [activator, single point], CCN(CC)c1ccc(/C=C2/SC(=O)N(C(C)C)C2=O)o1 5.62 µM [activator, single point], O=C1C(=Cc2ccccn2)CCc2ccccc21 4.47 µM [activator, single point], Cc1ncc(CO)c(/C=N/Nc2cccc(Cl)n2)c1O 15.8 µM [activator, single point], Cc1cc(-c2cccs2)c2c(n1)sc1c(=O)[nH]c(=O)[nH]c12 10 µM [activator, partial curve], O=S(=O)(Nc1cccc2cccnc12)c1ccc(S(=O)(=O)N2CCCC2)cc1 35.5 µM [activator, single point]

Potency, active:
Cc1nc2scc(-c3ccccc3)c2c(=O)n1N=C1C=CC(=O)C=C1 10 µM, CCCN(CC(=O)Nc1ccc(Cl)cc1Cl)C(=O)/C=C/c1ccco1 11.2 µM, Cc1cc(-c2ccccc2)nc(N/N=C/c2ccc(O)cc2)n1 8.91 µM

activation, inactive:
CCc1cccc(C)c1NC(=O)Cn1c(=O)n(-c2cccc(C)c2)c(=O)c2c1c1cc(C)ccc1n2C -0.29%, Cc1ccc(-c2nnn(CCC(=O)NC(C)(C)C)n2)cc1 2.52%, CN(C)C1=NCCN1CCc1ccc(F)cc1 0.235%, Cc1csc(N=Nc2ccc(N(C)C)cc2)[n+]1[O-] -0.0221%, O=C(O)CCc1nn2c3ccccc3n(CC(=O)c3ccccc3)c2nc1=O -0.808%, CC(C)c1nnc(NC(=O)C2CCCCC2)s1 3.59%, COc1ccc(Cl)cc1NC(=O)CN1CCC(NC(=O)C2CC2)CC1 2.64%, O=C(CCS(=O)(=O)c1nc(-c2cccs2)cc(C(F)(F)F)n1)Nc1ccc(F)c(Cl)c1 -5.27%, Brc1ccc2c(c1)C(c1cccs1)=NNC(c1cccnc1)=N2 -0.634%, Cc1cc(Cl)ccc1OCC(=O)N1CCC(c2nc3ccccc3o2)CC1 -1.12%, Cc1cccnc1NC(=S)Nc1ccc(Br)cc1Cl 0.432%, Cc1ccccc1Cn1ccc(NC(=O)c2cnn3c(C(F)(F)F)cc(-c4ccco4)nc23)n1 -0.49%, CC(C)(C)[C@H]1C=C(C(=O)N2CCN(Cc3ccc4c(c3)OCO4)CC2)O[C@@H](OCCCCO)C1 0.352%

Source: PubChem BioAssay AID624171 (National Center for Advancing Translational Sciences (NCATS), 2012)
